The record followed here is PMC4336329 (PLoS ONE, 2015).

Each structure is given as a SMILES string. Screen size: about 310,000 compounds; about 2,200 (0.71%) showed an effect of 50% or more. Effects have a minus sign here. The list shows a part of the results.

For the assay, the target named is human ether-à-go-go-related gene (hERG) potassium channel (human, UniProt Q12809). Briefly: primary screen, population patch clamp on CHO cells stably expressing hERG.
human ether-à-go-go-related gene (hERG) potassium channel, sequence (Q12809 whole entry, looked up): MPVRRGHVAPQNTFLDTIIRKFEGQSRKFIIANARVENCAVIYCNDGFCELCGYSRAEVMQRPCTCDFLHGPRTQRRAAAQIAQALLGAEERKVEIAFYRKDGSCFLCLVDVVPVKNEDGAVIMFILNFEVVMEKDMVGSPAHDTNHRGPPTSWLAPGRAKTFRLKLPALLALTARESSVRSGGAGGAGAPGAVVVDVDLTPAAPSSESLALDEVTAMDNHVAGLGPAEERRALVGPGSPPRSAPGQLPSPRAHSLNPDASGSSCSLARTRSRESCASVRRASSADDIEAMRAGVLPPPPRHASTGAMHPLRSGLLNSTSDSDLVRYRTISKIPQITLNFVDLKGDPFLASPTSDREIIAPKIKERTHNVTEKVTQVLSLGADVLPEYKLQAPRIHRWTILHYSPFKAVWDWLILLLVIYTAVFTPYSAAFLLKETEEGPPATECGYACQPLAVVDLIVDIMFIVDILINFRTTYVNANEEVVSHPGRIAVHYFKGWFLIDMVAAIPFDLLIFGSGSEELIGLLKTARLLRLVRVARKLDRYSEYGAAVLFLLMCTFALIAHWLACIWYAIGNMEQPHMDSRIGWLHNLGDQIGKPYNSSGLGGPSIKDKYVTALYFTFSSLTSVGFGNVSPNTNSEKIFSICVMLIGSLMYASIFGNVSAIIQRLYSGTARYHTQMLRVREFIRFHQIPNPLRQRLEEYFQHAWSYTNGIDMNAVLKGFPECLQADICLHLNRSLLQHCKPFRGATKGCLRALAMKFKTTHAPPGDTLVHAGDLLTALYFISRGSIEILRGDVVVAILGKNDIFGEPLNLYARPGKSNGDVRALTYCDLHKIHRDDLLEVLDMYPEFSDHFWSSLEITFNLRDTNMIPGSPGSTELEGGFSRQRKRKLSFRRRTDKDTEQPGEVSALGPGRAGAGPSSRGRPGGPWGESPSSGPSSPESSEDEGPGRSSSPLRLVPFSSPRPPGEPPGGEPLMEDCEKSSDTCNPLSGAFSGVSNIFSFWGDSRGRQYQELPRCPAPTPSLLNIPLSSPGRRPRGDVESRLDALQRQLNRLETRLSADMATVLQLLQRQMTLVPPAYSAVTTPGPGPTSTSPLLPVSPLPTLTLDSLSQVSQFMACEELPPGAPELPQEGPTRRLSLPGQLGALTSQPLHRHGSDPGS
`Cc1ccc(NC(=O)Cc2ccc(Cl)c(Cl)c2)cc1S(=O)(=O)N(C)C`: the “hERG current change (%, negative = inhibition) at 1uM” value turned out to be 10.1%.

On to `COc1ccccc1CC(NC(C)=O)C(=O)NC1CCN(S(=O)(=O)c2ccc(NC(C)=O)cc2)CC1` (stereo not shown), for which the “hERG current change (%, negative = inhibition) at 1uM” value was determined as 0.979%. As for `Cc1cc2c3c(c1)C1(SCC(=O)N1c1ccc(F)cc1)C(=O)N3C(C)(C)CC2C` (stereo not shown), the “hERG current change (%, negative = inhibition) at 1uM” value is listed as -3.01%.

Turning to `COc1ccccc1CC(=O)Nc1cc(S(=O)(=O)N2CCOCC2)ccc1N1CCOCC1`, the “hERG current change (%, negative = inhibition) at 1uM” value worked out at 6.53%. Next, `O=C(N/N=C/c1ccc(Cl)cc1)Nc1ccccc1`: 2.21%; `Cc1ccc(C)c(N2CCN(C(=O)c3ccc(NS(=O)(=O)c4c(C)noc4C)cc3)CC2)c1`: 9.8%; `Cc1ccc2[nH]c(=O)c(CN(CC3CCCO3)C(=O)c3ccncc3)cc2c1` (stereo not shown): 10.8%. Next, `CCCOc1ccc(N2C(=O)C3C4C=CC(CC4)C3C2=O)cc1` (stereo not shown): 12.4%.

As for `COc1ccc(/C(O)=C2/C(=O)C(=O)N(CCN(C)C)C2c2ccccn2)cc1OC` (stereo not shown), the “hERG current change (%, negative = inhibition) at 1uM” value was 15%. Take `N#Cc1c(N)c(C(=O)c2ccccc2)n2ccccc12`: the “hERG current change (%, negative = inhibition) at 1uM” value was 13.4%. With `C[C@H](NC(=O)[C@@H]1Cc2ccccc2CN1C(=O)OC(C)(C)C)C(=O)NC1CCCCC1`, the “hERG current change (%, negative = inhibition) at 1uM” value is 13.1%. In the case of `Nn1c(SCC(=O)NNC(=O)c2ccccc2)nnc1-c1ccccc1F`, the “hERG current change (%, negative = inhibition) at 1uM” value turned out to be 13.2%. The figure for `Cc1cccnc1N(C(=O)Nc1ccccc1)C1=NCC(C)(C)S1` is 0.866%; for `CC(C)OCCCNC(=O)c1cccs1` it is -3.78%; for `Cc1ccc(N(C(=O)Cc2c[nH]c3ccccc23)C(C(=O)NC2CCCCC2)c2ccco2)cc1` (stereo not shown) it is -2.79%.

Take `O=C1CC(c2ccc(F)cc2)c2cc3c(cc2N1)CCC3` (stereo not shown): the “hERG current change (%, negative = inhibition) at 1uM” value is recorded as -0.85%. The figure for `Cc1ccc(S(=O)(=O)NCC(=O)OCC(=O)Nc2cccc(S(=O)(=O)NC3=NCCCCC3)c2)cc1C` is 6.3%; for `Cc1cc(/C(=N/O)C(C)(C)NO)ccc1Cl` it is 13.1%. Next, `CCOc1ccc(OCCC(=O)OCC(=O)Nc2cc(OCC)c(N3CCOCC3)cc2OCC)cc1`: 12.9%; `CC(C)(C)c1ccc(NC(=O)C2=CN3CCS(=O)(=O)N=C3C=C2)cc1`: -1.02%. Next, `Cn1c(SCC(=O)NC2CCCCC2)nnc1-c1ccccc1O`: -20.1%; `COc1ccc(C(CNC(=O)c2ccc(NS(=O)(=O)c3ccc(F)c(C)c3)cc2)N2CCOCC2)cc1` (stereo not shown): -1.98%. Take `Cc1ccn(CC(=O)N2N=C(C(F)F)CC2(O)C(F)F)n1` (stereo not shown): the “hERG current change (%, negative = inhibition) at 1uM” value amounted to 18.1%. Next, `COc1ccc(/C=N/NC(=O)c2ccoc2C)cc1CN1CCN(c2ccc(F)cc2)CC1`: -19.3%; `Cc1cc(NC(=O)C2CCN(S(=O)(=O)c3c(C)noc3C)CC2)ccc1Br`: 19.5%. The figure for `O=C(Nc1ccc2nsnc2c1)c1cccs1` is 14.5%; for `COc1ccc(-c2c(C)nn(Cc3ccccc3)c2N)cc1` it is -1.25%. The figure for `CCc1ccc(NC(=O)c2cnc(SC)nc2C)cc1` is 11.4%. `CC1=CC(C)(C)N2C(=O)C3(C(C#N)=C(N)Oc4cc(O)ccc43)c3c(C)c(C)cc1c32` (stereo not shown): the “hERG current change (%, negative = inhibition) at 1uM” value is given as -9.88%.

In the case of `O=C(CC(O)(c1ccccc1)C(F)(F)C(F)F)c1cccs1` (stereo not shown), the “hERG current change (%, negative = inhibition) at 1uM” value is reported as 7.27%.

Regarding `CCC(=Nc1ccc2c(c1)CCC2)c1c(O)n(C)c(=O)n(C)c1=O`, the “hERG current change (%, negative = inhibition) at 1uM” value is 3.33%. In the case of `CCCCN(C(=O)c1ccc2ccccc2c1)c1c(N)n(CCCC)c(=O)[nH]c1=O`, the “hERG current change (%, negative = inhibition) at 1uM” value came out at 2.9%.

Consider `COC(=O)Cn1cc(C(=O)C(C)(C)C)c2ccccc21`, for which the “hERG current change (%, negative = inhibition) at 1uM” value turned out to be 9.17%. `O=C(CSc1nnc(CNC(=O)c2ccc(F)cc2)o1)NCc1ccc(F)cc1`: the “hERG current change (%, negative = inhibition) at 1uM” value was 7.03%.

`CCc1nc2ccc(C(=O)NCc3ccccc3)cc2nc1CC`: the “hERG current change (%, negative = inhibition) at 1uM” value stood at 7.34%. With `CC/C(=N/Nc1ccccc1)c1cnnc(SC)n1`, the “hERG current change (%, negative = inhibition) at 1uM” value is 5.25%. The figure for `C/C(=N/NC(=O)c1cccs1)c1ccco1` is 14.6%; for `CCOC(=O)c1c(NC(=O)CCCC(=O)O)sc2c1CCC2` it is 4.7%.

On to `O=C1CC(C(=O)NCc2ccccc2)C2(CCCC2)O1` (stereo not shown), for which the “hERG current change (%, negative = inhibition) at 1uM” value is 5.35%. The figure for `CNC(C(=O)c1ccccc1)C(OC)c1ccc(C)cc1.[O-][Cl+3]([O-])([O-])O` (stereo not shown) is 10.9%. With `Cc1ccc(NC(=O)C[n+]2ccn(C3=C([O-])c4ccccc4C3=O)c2)cc1`, the “hERG current change (%, negative = inhibition) at 1uM” value is listed as 6.99%.

For the compound `COc1ccc(S(=O)(=O)NNC(=O)c2ccccc2-n2cccc2)cc1`, the “hERG current change (%, negative = inhibition) at 1uM” value was found to be 15.1%. Next, `CCOC(=O)c1c(S(=O)(=O)NCC(=O)Nc2ccc(F)cc2F)c(C)n(C)c1C`: 11.7%; `Cc1cccc(OCCCC(=O)Nc2ccccc2C(F)(F)F)c1`: 6.37%. As to `CCOc1cc(NC(=S)NCc2ccccc2)c(OCC)cc1NC(=O)C(C)C`, the “hERG current change (%, negative = inhibition) at 1uM” value is listed as 11.1%.

For `O=C(O)c1ccc(/C=N/Nc2ccc(Cl)nn2)cc1`, the “hERG current change (%, negative = inhibition) at 1uM” value is recorded as 15.5%. With `O=C(Nc1ccc(C(=O)NCc2ccccc2)cc1)C1=CSCCO1`, the “hERG current change (%, negative = inhibition) at 1uM” value was 16.4%. Consider `CCN1CCC2(CC1)C(C#N)=C(N)Oc1c2sc2nc(C)cc(C)c12`, for which the “hERG current change (%, negative = inhibition) at 1uM” value is -5.82%. With `COc1cccc(OCCNC(=O)CSc2ccc(C(F)(F)F)cc2[N+](=O)[O-])c1`, the “hERG current change (%, negative = inhibition) at 1uM” value came out at 9.88%. The figure for `FC(F)Oc1ccc(NC(=S)Nn2cnnc2)cc1` is 8.77%. Next, `COC(=O)c1cc(C(=O)OCC(=O)NCc2cccs2)cc([N+](=O)[O-])c1`: -7.81%; `C=CCN(CC=C)C(=O)c1cc2ccccc2c(=O)o1`: 5%. As for `Cn1nc(C(F)(F)F)c(-c2cccc(C(F)(F)F)c2)c1NC(=O)Nc1ccc(F)cc1`, the “hERG current change (%, negative = inhibition) at 1uM” value turned out to be 18%. The figure for `O=C(NN=C1CCCC1)c1ccc(Br)cc1` is 12.4%; for `COc1ccc2[nH]c(C(=O)Nc3ncc(C)cc3Br)cc2c1` it is 11.1%. The figure for `CC(=O)Nc1ccc(/C=N/OCC(=O)Nc2ccc(C)cc2)cc1` is 6.31%; for `COc1ccc(CN2CCCCCC2)cc1` it is 1.26%.

Regarding `CCCC(=O)N(CCN1CCOCC1)c1nc2c(OCC)cccc2s1.Cl`, the “hERG current change (%, negative = inhibition) at 1uM” value was determined as 10.4%.

In the case of `Cc1nn2c(-c3ccc(F)cc3)ccnc2c1Br`, the “hERG current change (%, negative = inhibition) at 1uM” value is 8.89%. Next, `Cc1ccc(-n2nc(C)c3c2OC(N)=C(C#N)C3c2ccco2)cc1` (stereo not shown): 15.9%; `CSc1nnc(-c2cccc(NC(=S)NN)c2)o1`: 13.4%; `CC(=O)Nc1ccc(C(=O)NNC(=O)c2cc([N+](=O)[O-])cc([N+](=O)[O-])c2)cc1`: 12.6%. With `COc1cccc(/C=C(/C(=O)OCC(=O)NC2CCCCCCC2)c2ccccc2)c1`, the “hERG current change (%, negative = inhibition) at 1uM” value was determined as 8.5%. Consider `COc1ccc(CCN(C)CC(O)c2ccccc2)cc1OC.O=C(O)C(=O)O` (stereo not shown), for which the “hERG current change (%, negative = inhibition) at 1uM” value is 1.76%. As to `Cc1cc(NC(=O)Nc2ccc(Cl)cc2)n(C(C)(C)C)n1`, the “hERG current change (%, negative = inhibition) at 1uM” value is given as 11.2%. Next, `CCOc1ccc(S(=O)(=O)N2CCCC(C(=O)Nc3cc(C)cc(C)c3)C2)cc1` (stereo not shown): 14.7%; `O=C(C1CCN(c2nnc(-n3cccc3)s2)CC1)N1CCN(Cc2ccc3c(c2)OCO3)CC1`: -48.4%; `O=C(N/N=C/c1cc(Cl)cc([N+](=O)[O-])c1O)C(O)(c1ccccc1)c1ccccc1`: -62.4%. The figure for `Cc1cccc(C(C)C)c1-n1nnnc1-c1ccccc1` is 2.15%; for `COc1ccccc1N1CCN(C2CCCC(C)C2)CC1` (stereo not shown) it is 15.8%. With `CCOP(=O)(OCC)C(NCc1ccccc1)c1ccc(Br)cc1` (stereo not shown), the “hERG current change (%, negative = inhibition) at 1uM” value was 7.25%.

Turning to `CCOC(=O)[C@H]1[C@H]2COc3ccc(Br)cc3[C@@H]2N2C(=O)c3cc(OC)c(OC)cc3NC(=O)[C@@]12C`, the “hERG current change (%, negative = inhibition) at 1uM” value turned out to be 7.08%. The figure for `CCOC(=O)Cn1c(=O)oc2cc(S(=O)(=O)N3CCC(N4CCCCC4)CC3)ccc21` is 12.2%. The figure for `CC(=O)N1CCN(Cc2nc3cc([N+](=O)[O-])ccc3n2C)CC1` is 14%. The figure for `C=CCNc1nc(C(=O)OCC(=O)c2ccc(C)c([N+](=O)[O-])c2)cs1` is 8.54%; for `Cc1nnc(-c2cnn(C)c2N)n1CCCN(C)C` it is 11.5%. Turning to `CC1=NN(c2nc(-c3ccc(C)cc3)cs2)C(=O)C1N=Nc1ccc2ccccc2c1` (stereo not shown), the “hERG current change (%, negative = inhibition) at 1uM” value is listed as -12.8%.

Regarding `CC(C)(O)C#Cc1ccc(CN2CCN(C3CCCC3)C(CCO)C2)cc1` (stereo not shown), the “hERG current change (%, negative = inhibition) at 1uM” value was 14.6%.

In the case of `Cl.O=C(O)CCn1c(CO)nc2ccccc21`, the “hERG current change (%, negative = inhibition) at 1uM” value is on record as 13%. The figure for `CC(=O)Nc1ccc(NC(=O)CCOc2cc(C)ccc2C)cc1` is 23%; for `CCn1ccnc1CN1CCc2c([nH]c3ccccc23)C1C(C)(C)C` (stereo not shown) it is 0.362%; for `O=C(c1cccs1)c1c[nH]cc1-c1ccccc1` it is 14.5%. Next, `COC(=O)[C@H]1[C@H]2C[C@H]3c4[nH]c5ccccc5c4CCN3C[C@@H]2CC[C@@H]1O`: 6.91%. Turning to `Cc1ccc2nc(NC(=O)c3cc(-c4ccco4)nc4ccccc34)sc2c1`, the “hERG current change (%, negative = inhibition) at 1uM” value turned out to be 13.4%. Next, `Nc1nc(-c2cccs2)cs1`: 6.26%; `O=C1CN(C(=O)COC(=O)COc2ccc3c(c2)CCC3)c2ccccc2N1`: 10%. For `CN(C)c1cccc(C(=O)NNC(=O)CSc2ccccc2)c1`, the “hERG current change (%, negative = inhibition) at 1uM” value was determined as 26.9%. Take `O=C(NCCCO)c1ccc(CSc2nc3ccccc3c(=O)[nH]2)cc1`: the “hERG current change (%, negative = inhibition) at 1uM” value is reported as -11.3%.
